Values marked as one replicate rest on one cluster of the flow cell; about a third of the high ones do not repeat.
System: ATP
Assay: switch fluorescence ratio, 500 uM ATP over buffer (Cy3 cluster intensity, sum of 5 cycles each) (fold (ratio)); higher = stronger signal-on switching upon ATP binding; sequences stand for … in TCGTCGGCAGCGTCAGATGTGTATAAGAGACAGTTTTTTTTTTTTTTTTTTTTTTTTT…TC
Settings: aptamer strand: ATP DNA aptamer (quencher-CACCTGGGGGAGTATTGCGGAGGAAGG + anchor), 100 nM annealed; ATP concentration: 500 uM; one replicate
Method in brief: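 Switching-strand clusters labelled with Cy3 on a modified Illumina MiSeq flow-cell were annealed to 100 nM quencher-labelled ATP aptamer, imaged in selection buffer, and re-imaged after 15 min with 500 uM ATP at 22 °C. This was done over five cycles with NaOH stripping and re-annealing in between. The fluorescence ratio is summed target-cycle over summed buffer-cycle Cy3 intensity per cluster, averaged per switch-domain sequence, excluding clusters outside 100-1000 RFU.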
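Further: ATP exposure 15 min at 22 °C before imaging.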

Sequence	switch fluorescence ratio
AACTCTGTCG	0.987
TCGCTCCCGT	1.04
GGGTACTCTT	0.967
TATGGAACAG	1.01
CTGCTTGGTC	1.01
TCTGGCGATG	0.976
CTGCCTCAGT	1.11
TCGAAAGCGG	1
ACATAAGAGC	1.05
GAGCAATGCA	2.3
TCGGCACACT	1.14
TATGCCGGTA	1.02
TTAAGGAATC	1.03
CACGTCAGAC	1.3
TAAGCGTTGG	0.993
GCATGCTCTA	0.975
AAAATAGACT	0.987
GAGTCTGCTC	1.02
TCACATCTGT	1.01
TAATGTGGC	1.01
GCAGGGTGTG	1.02
CTGTGTGCAA	2.71
TTTCACTTAC	1.38
CGGGTAGCGA	0.99
TTATTCCCTA	1
ATCGCCCCGT	1.02

Sequence	switch fluorescence ratio
GCGACACCC	1.22
GACCACTCCT	1.15
TCTTGGGAA	1.03
TGGGTGACT	0.99
CGCGGAGGTA	1.04
AGTTGTGCCC	0.939
CTTGACATCG	0.949
ATAGTTCGAA	1.03
CTTGACTCAT	1.04
AAAAAAGGCC	1.07
CTTGATAAAC	1.03
GCTGGTGTCT	0.98
AGGATAGCG	0.966
TATTGTGATC	1.02
GCCTAAGGAC	0.958
AACCAGGATC	1
AGTTTTGTAA	0.951
GGGGCGACTC	0.973
GGTGCTTTGA	1
AAGGGACTCC	0.984
CTGCTGGTGT	1.08
CACATACCCG	1.26
AACCGCCGGC	1.14
ACCTCGTGGG	1.01
TTGGGGGTC	1.01
TTAATGTACT	1.04

Sequence	switch fluorescence ratio
AGTCTGCGGT	0.998
CATGGGAGAA	0.991
GATCGCTGC	1.41
TGGGCGAGAT	1.01
ACTCGACGGA	1.06
ACCTATGATC	1.06
AAAGATCATA	0.995
ACCAAGCATG	1.01
TGGCTAATAG	1.01
GATAAATCTC	0.992
GTAGCACCGG	0.987
CGACGTCGCA	1.05
GTAAGTGTTA	0.977
TAAAGTCGCA	0.965
ATTGCCGAGA	1
GTGTCATATA	0.991
ATGTTGTCGC	1
TAATTTTGGA	1.03
TAGGAACTAT	1.01
GATTTATTCC	1.02
CTTATGCGGT	0.994
AACAAACGAG	1.1
ACGCAGGGGC	1.11
ACCTGTTGGA	0.977
CGTGCCAGGT	1.1
TGAAGAAAAC	1.03

Sequence	switch fluorescence ratio
ATGGTGGAGA	0.982
CACGTGAAAA	1.05
GCTGTCTTGA	0.977
GTGAGGAGTC	0.976
CTTTTTTCCA	1
TTTAAAAACA	1.02
ATGCTCATAA	0.964
CGTTAGTTGG	0.987
TGCTAAGGGG	1.02
TGAGGTCGAA	0.964
AGGCGATCCT	1
TAGGATAACA	0.97
CTAAGAAAG	0.989
AGGCCCGCGG	0.994
GAGAAGGGT	0.975
GGGCTTCATG	1.07
ACCCGGTATT	0.982
AAGTGGTCGA	0.973
ACATGGTGCT	1.05
ATTTGGACCC	1.03
TCGAGGCGCT	0.971
GTGCACCATA	0.965
CGCGCGGGAA	1
TTTATGACCA	0.935
AAGTGATCCA	0.976
CTCCATTTGC	2.03

Sequence	switch fluorescence ratio
CTGGGATGCA	1.04
GGGCTGCAGG	1.04
TAAGTTGGGC	0.816
TGCGGATCTG	0.992
ATCTGGGAAA	1
GGCCAGATCA	1.01
GAAAACGCCT	1.22
TTTGGACACT	1.03
CGACGGGCTC	1.86
ACTCGTTTAA	1.01
CGATCGTTTC	1.07
CTTACGAAAA	1.07
CCAATTCGAC	1.16
CGCGGCCTAA	1.06
CAGCAAGGA	3.4
GTCGGTCGGG	0.937
GCGCGTTAGA	1.01
GGACAAGGGA	0.964
ACTACACCGG	1.9
TAGGAGCTGG	1.02
CCGAATGTTA	1.29
ACCAGGGCTC	1.08
ACACGGGAGT	0.976
CACGTTTGTG	0.989
ATCACTTCGC	1.11
AACGGCCCAT	1.01

Sequence	switch fluorescence ratio
GGTGACCGCA	1.07
TGTATGAAAA	1.02
TAGTCAGGGA	0.994
GTTGATATTG	1.07
TTGCGTCGGT	1.03
GAGAGGTGGA	1.01
GAGAGGCGCT	0.945
GAGCGAAGAG	0.996
TCTAACAAGT	0.946
CACTGATAGA	1.04
TGAAACTTTT	1
ACGAAATTCT	1.13
CGCCTAGGAA	0.977
GGTCCGTG	0.943
TTCCTGATAG	1.03
TGGTGGGACT	1.02
ACAGTTGTTT	1.06
GGGTTTGTGC	1.03
CTGATATTT	0.98
TACGCGCCCC	1.07
AACGGTCTCT	0.994
CGAGCCTGTT	0.966
TTTGAAATCA	1.01
